We go through 37 sequences from PMC5892938.

This is one part of the list. At the low end of the ranking the order means little.

In this experiment the target is GST-SBP-SLBP (stem-loop binding protein) (UniProt Q14493). Description: targeted RNA Bind-n-Seq.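 Also: DESeq read counts versus GST-SBP nonspecific binding control pulldown.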 To be noted: RBNS binding buffer: 25 mM Tris pH 7.5, 150 mM KCl, 3 mM MgCl2, 0.1% Tween, 0.5 mg/mL BSA, 1 mM DTT; 27 nM protein, 750 pM RNA pool; temperature not stated; high values mean tight binding.
For “GGUCACGUCUCAAUCAACUCUAUCUCCAGGGAAAUCCCUGGCAUUCUCAACAGCUCGCAGUCAAG”, the binding signal (log2 fold change) is -0.167. In the case of “GGUCACGUCUCAAUCAACUCUAGUCCAGGAGUUUCCUCCUGUAUAUUCAACAGCUCGCAGUCAAG”, the binding signal (log2 fold change) was -0.000137. With “GGUCACGUCUCAAUCAACUCUUCGCCCAGGGAAAGCCCUGGUAAUUUCAACAGCUCGCAGUCAAG”, the binding signal (log2 fold change) is -0.192. With “GGUCACGUCUCAAUCAACUCUUCCCCCAGGGAAAACCCUGGCUAAUUCAACAGCUCGCAGUCAAG” the figure was -0.0619; with “GGUCACGUCUCAAUCAACUCCUACGAGGGGGGGAAAACCCCUUUACCCUCACAAUCAACAGCUCGCAGUCAAG”, -0.474. On to “GGUCACGUCUCAAUCAACUCAACGCCAGGAGUUUUCUCCUGUAUUCUCAACAGCUCGCAGUCAAG”, for which the binding signal (log2 fold change) is -0.0179. For the sequence “GGUCACGUCUCAAUCAACUCAUUCCCAGGAGUUUUCUCCUGCUUAGUCAACAGCUCGCAGUCAAG”, the binding signal (log2 fold change) worked out at 0.0921. Regarding “GGUCACGUCUCAAUCAACUCAACGCCAGGAGUUUUCUCCUGUUUAUUCAACAGCUCGCAGUCAAG”, the binding signal (log2 fold change) is -0.215. As to “GGUCACGUCUCAAUCAACUCUCUCGAGGGGGGGAAAACCCCUUUACCCUCAAACUCAACAGCUCGCAGUCAAG”, the binding signal (log2 fold change) is -0.00388. Regarding “GGUCACGUCUCAAUCAACUCAGUUUCCAGGGAAAGCCCUGGUUUAUUCAACAGCUCGCAGUCAAG”, the binding signal (log2 fold change) came to 0.00488. With “GGUCACGUCUCAAUCAACUCUCCCGAGGGGGGGAAAACCCCUUUGCCCUCACAUUCAACAGCUCGCAGUCAAG” the figure was 0.0108. With “GGUCACGUCUCAAUCAACUCAUCUUCAGGAGUUUACUCCUGUUUAGUCAACAGCUCGCAGUCAAG” the figure was -0.0298. Then “GGUCACGUCUCAAUCAACUCUUCUCCAGGAGUUUUCUCCUGCUAAUUCAACAGCUCGCAGUCAAG”, with -0.237; and “GGUCACGUCUCAAUCAACUCAAGUCCCAGGGAAACCCCUGGCAAAUUCAACAGCUCGCAGUCAAG”, with -0.0828. “GGUCACGUCUCAAUCAACUCUCUAGAGGGGGGGAAAACCCCUUUACCCUCGAUAUCAACAGCUCGCAGUCAAG”: the binding signal (log2 fold change) is -0.305.

Turning to “GGUCACGUCUCAAUCAACUCGUUUUCAGGAGUUUCCUCCUGCUUAUUCAACAGCUCGCAGUCAAG”, the binding signal (log2 fold change) is -0.0376. As for “GGUCACGUCUCAAUCAACUCAUCGCCAGGAGUUUCCUCCUGCUUUCUCAACAGCUCGCAGUCAAG”, the binding signal (log2 fold change) is -0.196. With “GGUCACGUCUCAAUCAACUCAUAAGAGGGGGGGAAAACCCCUUUGCCCUCAAACUCAACAGCUCGCAGUCAAG” the figure was 0.197.

In the case of “GGUCACGUCUCAAUCAACUCUAGUCCCAGGGAAACCCCUGGUAAUUUCAACAGCUCGCAGUCAAG”, the binding signal (log2 fold change) is -0.162. Regarding “GGUCACGUCUCAAUCAACUCAAGUCCAGGAGUUUACUCCUGUUAAUUCAACAGCUCGCAGUCAAG”, the binding signal (log2 fold change) was -0.124. Consider “GGUCACGUCUCAAUCAACUCUAGGUCAGGAGUUUCCUCCUGUAAAUUCAACAGCUCGCAGUCAAG”, for which the binding signal (log2 fold change) worked out at 0.0665.

For “GGUCACGUCUCAAUCAACUCUCUCGAGGGGGGGAAAACCCCUUUGCCCUCACAUUCAACAGCUCGCAGUCAAG”, the binding signal (log2 fold change) worked out at 0.226. Then “GGUCACGUCUCAAUCAACUCAACUCCCAGGGAAACCCCUGGCUUUCUCAACAGCUCGCAGUCAAG”, with -0.0101; and “GGUCACGUCUCAAUCAACUCUUCUCCCAGGGAAACCCCUGGUUUUUUCAACAGCUCGCAGUCAAG”, with 0.00448.

For the sequence “GGUCACGUCUCAAUCAACUCUUCUUCCAGGGAAAACCCUGGUUUACUCAACAGCUCGCAGUCAAG”, the binding signal (log2 fold change) was -0.22. For the sequence “GGUCACGUCUCAAUCAACUCAUUCCCAGGAGUUUUCUCCUGUUAUCUCAACAGCUCGCAGUCAAG”, the binding signal (log2 fold change) turned out to be 0.0936. For “GGUCACGUCUCAAUCAACUCUUCCUCCAGGGAAACCCCUGGUAUUUUCAACAGCUCGCAGUCAAG”, the binding signal (log2 fold change) worked out at 0.267.

For “GGUCACGUCUCAAUCAACUCUAUUCCAGGAGUUUCCUCCUGUUUUUUCAACAGCUCGCAGUCAAG”, the binding signal (log2 fold change) is -0.0612. With “GGUCACGUCUCAAUCAACUCUUAAGAGGGGGGGAAAACCCCUUUACCCUCCACAUCAACAGCUCGCAGUCAAG” the figure was -0.112; with “GGUCACGUCUCAAUCAACUCCACAGAGGGGGGGAAAACCCCUUUACCCUCAAACUCAACAGCUCGCAGUCAAG”, -0.145.

In the case of “GGUCACGUCUCAAUCAACUCUCUAGAGGGGGGGAAAACCCCUUUACCCUCACUUUCAACAGCUCGCAGUCAAG”, the binding signal (log2 fold change) is 0.308. Consider “GGUCACGUCUCAAUCAACUCUAUCCCAGGAGUUUCCUCCUGCAUUUUCAACAGCUCGCAGUCAAG”, for which the binding signal (log2 fold change) is 0.0547.

In the case of “GGUCACGUCUCAAUCAACUCUUCCUCCAGGGAAAACCCUGGCUAACUCAACAGCUCGCAGUCAAG”, the binding signal (log2 fold change) turned out to be 0.0355. Then “GGUCACGUCUCAAUCAACUCAUUUUCCAGGGAAAUCCCUGGCUUUUUCAACAGCUCGCAGUCAAG”, with -0.0822; and “GGUCACGUCUCAAUCAACUCAUCCUCAGGAGUUUUCUCCUGUUAACUCAACAGCUCGCAGUCAAG”, with -0.00965; and “GGUCACGUCUCAAUCAACUCAAUCUCCAGGGAAAUCCCUGGCUUAUUCAACAGCUCGCAGUCAAG”, with 0.232. With “GGUCACGUCUCAAUCAACUCUACGGCAGGAGUUUUCUCCUGGAAUUUCAACAGCUCGCAGUCAAG” the figure was 0.0297.
